Measurements published in the supplement of paper PMC8728848.
Some of the results follow.

How the values were obtained:
Test in all cases: glycan array binding signal (z-score within array); higher = stronger binding
Details in all cases: glycan notation: IUPAC condensed, linker removed
[1] = molecular target: Glc(a1-4)Glc(a1-4)Glc(a1-4)Glc(a1-4)Glc(a1-4)Glc(a1-4)Glc(a1-4)Glc(a1-4)Glc(a1-4)Glc(a1-4)Glc(a1-4)Glc(a1-4)Glc
Method in brief: (§1)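 Columns mapping to the same glycan were averaged after glycan names were converted to IUPAC-condensed notation. The data come from 3228 arrays in the Consortium for Functional Glycomics database, limited to those with an available protein sequence. Binding is reported as a within-array Z-score averaged across arrays of one protein sequence and across linkers.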

Glc(a1-6)Glc = molecular target: Glc(a1-6)Glc
Method in brief: as §1

[2] = molecular target: Glc(a1-6)Glc(a1-4)Glc(a1-4)Glc
Method in brief: as §1

Glc(a1-6)Glc(a1-6)Glc = molecular target: Glc(a1-6)Glc(a1-6)Glc
Method in brief: as §1

[3] = molecular target: Glc(a1-6)Glc(a1-6)Glc(a1-6)Glc
Method in brief: as §1

[4] = molecular target: Glc(a1-6)Glc(a1-6)Glc(a1-6)Glc(a1-6)Glc
Method in brief: as §1

[5] = molecular target: Glc(a1-6)Glc(a1-6)Glc(a1-6)Glc(a1-6)Glc(a1-6)Glc
Method in brief: as §1

[6] = molecular target: Glc(a1-6)Glc(a1-6)Glc(a1-6)Glc(a1-6)Glc(a1-6)Glc(a1-6)Glc
Method in brief: as §1

[7] = molecular target: Glc(a1-6)Glc(a1-6)Glc(a1-6)Glc(a1-6)Glc(a1-6)Glc(a1-6)Glc(a1-6)Glc
Method in brief: as §1

[8] = molecular target: Glc(a1-6)Glc(a1-6)Glc(a1-6)Glc(a1-6)Glc(a1-6)Glc(a1-6)Glc(a1-6)Glc(a1-6)Glc
Method in brief: as §1

[9] = molecular target: Glc(a1-6)Glc(a1-6)Glc(a1-6)Glc(a1-6)Glc(a1-6)Glc(a1-6)Glc(a1-6)Glc(a1-6)Glc(a1-6)Glc
Method in brief: as §1

[10] = molecular target: Glc(a1-6)Glc(a1-6)Glc(a1-6)Glc(a1-6)Glc(a1-6)Glc(a1-6)Glc(a1-6)Glc(a1-6)Glc(a1-6)Glc(a1-6)Glc
Method in brief: as §1

[11] = molecular target: Glc(a1-6)Glc(a1-6)Glc(a1-6)Glc(a1-6)Glc(a1-6)Glc(a1-6)Glc(a1-6)Glc(a1-6)Glc(a1-6)Glc(a1-6)Glc(a1-6)Glc
Method in brief: as §1

[12] = molecular target: Glc(a1-6)Glc(a1-6)Glc(a1-6)Glc(a1-6)Glc(a1-6)Glc(a1-6)Glc(a1-6)Glc(a1-6)Glc(a1-6)Glc(a1-6)Glc(a1-6)Glc(a1-6)Glc
Method in brief: as §1

Glc(b1-2)Glc = molecular target: Glc(b1-2)Glc
Method in brief: as §1

Glc(b1-3)Glc = molecular target: Glc(b1-3)Glc
Method in brief: as §1

Glc(b1-3)Glc(b1-3)Glc = molecular target: Glc(b1-3)Glc(b1-3)Glc
Method in brief: as §1

[13] = molecular target: Glc(b1-3)Glc(b1-3)Glc(b1-3)Glc
Method in brief: as §1

[14] = molecular target: Glc(b1-3)Glc(b1-3)Glc(b1-3)Glc(b1-3)Glc
Method in brief: as §1

[15] = molecular target: Glc(b1-3)Glc(b1-3)Glc(b1-3)Glc(b1-3)Glc(b1-3)Glc
Method in brief: as §1

[16] = molecular target: Glc(b1-3)Glc(b1-3)Glc(b1-3)Glc(b1-3)Glc(b1-3)Glc(b1-3)Glc
Method in brief: as §1

[17] = molecular target: Glc(b1-3)Glc(b1-3)Glc(b1-3)Glc(b1-3)Glc(b1-3)Glc(b1-3)Glc(b1-3)Glc
Method in brief: as §1

[18] = molecular target: Glc(b1-3)Glc(b1-3)Glc(b1-3)Glc(b1-3)Glc(b1-3)Glc(b1-3)Glc(b1-3)Glc(b1-3)Glc
Method in brief: as §1

[19] = molecular target: Glc(b1-3)Glc(b1-3)Glc(b1-3)Glc(b1-3)Glc(b1-3)Glc(b1-3)Glc(b1-3)Glc(b1-3)Glc(b1-3)Glc
Method in brief: as §1

[20] = molecular target: Glc(b1-3)Glc(b1-3)Glc(b1-3)Glc(b1-3)Glc(b1-3)Glc(b1-3)Glc(b1-3)Glc(b1-3)Glc(b1-3)Glc(b1-3)Glc
Method in brief: as §1

[21] = molecular target: Glc(b1-3)Glc(b1-3)Glc(b1-3)Glc(b1-3)Glc(b1-3)Glc(b1-3)Glc(b1-3)Glc(b1-3)Glc(b1-3)Glc(b1-3)Glc(b1-3)Glc
Method in brief: as §1

[22] = molecular target: Glc(b1-3)Glc(b1-3)Glc(b1-3)Glc(b1-3)Glc(b1-3)Glc(b1-3)Glc(b1-3)Glc(b1-3)Glc(b1-3)Glc(b1-3)Glc(b1-3)Glc(b1-3)Glc
Method in brief: as §1

Glc(b1-4)Glc = molecular target: Glc(b1-4)Glc
Method in brief: as §1

Glc(b1-4)Glc(b1-4)Glc = molecular target: Glc(b1-4)Glc(b1-4)Glc
Method in brief: as §1

[23] = molecular target: Glc(b1-4)Glc(b1-4)Glc(b1-4)Glc
Method in brief: as §1

[24] = molecular target: Glc(b1-4)Glc(b1-4)Glc(b1-4)Glc(b1-4)Glc
Method in brief: as §1

[25] = molecular target: Glc(b1-4)Glc(b1-4)Glc(b1-4)Glc(b1-4)Glc(b1-4)Glc
Method in brief: as §1

[26] = molecular target: Glc(b1-4)Glc(b1-4)Glc(b1-4)Glc(b1-4)Glc(b1-4)Glc(b1-4)Glc
Method in brief: as §1

[27] = molecular target: Glc(b1-4)Glc(b1-4)Glc(b1-4)Glc(b1-4)Glc(b1-4)Glc(b1-4)Glc(b1-4)Glc
Method in brief: as §1

[28] = molecular target: Glc(b1-4)Glc(b1-4)Glc(b1-4)Glc(b1-4)Glc(b1-4)Glc(b1-4)Glc(b1-4)Glc(b1-4)Glc
Method in brief: as §1

[29] = molecular target: Glc(b1-4)Glc(b1-4)Glc(b1-4)Glc(b1-4)Glc(b1-4)Glc(b1-4)Glc(b1-4)Glc(b1-4)Glc(b1-4)Glc
Method in brief: as §1

[30] = molecular target: Glc(b1-4)Glc(b1-4)Glc(b1-4)Glc(b1-4)Glc(b1-4)Glc(b1-4)Glc(b1-4)Glc(b1-4)Glc(b1-4)Glc(b1-4)Glc
Method in brief: as §1

[31] = molecular target: Glc(b1-4)Glc(b1-4)Glc(b1-4)Glc(b1-4)Glc(b1-4)Glc(b1-4)Glc(b1-4)Glc(b1-4)Glc(b1-4)Glc(b1-4)Glc(b1-4)Glc
Method in brief: as §1

Measured: glycan array binding signal (z-score)

B1: MIC1 (Toxoplasma gondii), O00834 (protein)
chain: VGPEAYGEASHSHSPASGRYIQQMLDQRCQEIAAELCQSGLRKMCVPSSRIVARNAVGITHQNTLQWRCFDTASLLESNQENNGVNCVDDCGHTIPCPGGVHRQNSNHATRHEILSKLVEEGVQRFCSPYQASANKYCNDKFPGTIARRSKGFGNNVEVAWRCYEKASLLYSVYAECASNCGTTWYCPGGRRGTSTELDKRHYTEEEGIRQAIGSVDSPCSEVEVCLPKDENPPLCLDESGQISRT
-0.283: [9]
-0.298: [15]
-0.278: [2]
-0.303: [4]
-0.312: Glc(a1-6)Glc | [5] | [6] | [7] | [14] | [24]
-0.287: all other assays above
